Test results reported in PubChem BioAssay AID1671194 (National Center for Advancing Translational Sciences (NCATS), 2021).
In all, about 140,000 compounds went through this assay and about 240 (0.17%) were called active. The shares of active, inactive and inconclusive entries below differ from those in the screen. Calls follow the shape of the dose curve; as a rule, active = well fitted inhibition curve with a large enough effect; inconclusive = small, poorly fitted or top-dose-only effect; inactive = no such curve, though single readings can be large or run the other way. Potencies of inconclusive entries are doubtful fits and often do not repeat.

test: Primary qHTS assay for inhibitors of alpha-synuclein gene (SNCA) expression; settings: HEK-293 SNCA-luciferase knock-in, luminescence, 24 h; series mostly up to 57.2 µM; also: nearly all actives have a fitted effect of over 45% in size
Potency is read from the fitted curve at half-maximal effect; tags tell the direction and shape of the fitted curve.

Potency, inactive:
CCOc1ccc(-c2cc(C(=O)Nc3ccc(NC(C)=O)cc3)no2)cc1
C[C@@H]1C(=O)O[C@H]2[C@H]1CC[C@@]1(C)Cc3sc(NC(=O)c4ccc(F)c(Cl)c4)nc3[C@@H](C)[C@H]21
CN(C)c1cccc(NC(=O)c2ccc3c(c2)NC(C)(COc2cccnc2)CO3)c1 (centres undefined)
Cc1ccc(NC(=O)Cn2c(-c3ccc(Cl)cc3)nc(C)c(CCO)c2=O)cc1
CCc1ccccc1-n1nc(-c2c(C)nc3scc(CC(=O)N4CCCC4)n3c2=O)cc1C
O=C1COc2ccc(NCc3cccs3)nc2CN1CCOc1ccccc1
O=C(NCCCc1ccccc1)c1nc2sccn2c1-c1ccc(F)cc1
Cc1ccc(C2=NC3(CCN(C(=O)c4cccc(N(C)C)c4)CC3)ON2)cc1
COc1ccc(CCC(=O)N2CCC3(CC2)C(OC)CN3c2cccc(F)c2)cc1 (centres undefined)
CS(=O)(=O)N1CCC2(CC1)CN(c1cccc(F)c1)C2c1ccccc1 (centres undefined)
CCc1noc(-c2ccn3c(CNC(=O)c4ccc(C)c(C)c4)nnc3c2)n1
Cc1ccc(CNC(=O)N2C[C@@H](Oc3ccccc3)C[C@@H]2C(=O)N2CCOCC2)cc1
O=C(c1ccccc1Br)N1CCN(c2cc(-c3cccs3)[nH]n2)CC1
COCCNC(=O)[C@@H]1C[C@@H](O)CN1C1CCN(C(=O)CN2CCCCCC2)CC1
O=C(NC[C@H]1Cn2c(-c3ccc4c(c3)OCO4)cnc2CO1)c1ccc2c(c1)OCO2
COc1ccccc1-c1ccc(C(=O)N2CCC(C(=O)N3CCC(c4ccccc4)CC3)CC2)cc1
COc1ccc(NC(=O)Cn2c(SCc3ccc(F)cc3)nc3cccnc32)cc1OC
Cc1ccc(NC(=O)CC2CCCN(c3cnn(CC4CC4)c(=O)c3)C2)cc1 (centres undefined)
COc1ccc(C(=O)N[C@@H]2CN(Cc3cccnc3)C[C@H]2CN(C)C)cc1F
CCOc1ccccc1CN1CCC2(CCN(C(=O)Nc3ccccc3)CC2)Oc2ccccc21
CCC1(O)CCC12CCN(C(=O)Cc1cccnc1)CC2 (centres undefined)
CCCCCN1CCCCC12Cc1ccccc1CNC2=O (centres undefined)

Potency, inconclusive:
Cc1cccc(N2C(=O)CS(=O)(=O)C23C(=O)N(Cc2c(F)cccc2Cl)c2ccccc23)c1 (centres undefined) 39.8 µM [inhibitor, single point]
O=C(NCc1ccc(Cl)cc1)c1nc2sccn2c1-c1cccc(C(F)(F)F)c1 39.8 µM [inhibitor, single point]
O=C(c1ccc(F)cc1)N1CCC2(CC1)CC(N(Cc1ccc(F)cc1)C1CC1)CCO2 (centres undefined) 14.1 µM [inhibitor, partial curve, poor fit]
Oc1ccc(NCc2ccccc2OCc2ccccc2F)cc1 11.2 µM [inhibitor, single point]
COc1ccc2c(c1)c(CN1CCCCCCN(C)C(=O)[C@@H]3CCC[C@@H]31)cn2C 14.1 µM [inhibitor, partial curve, poor fit]
CCS[C@H]1CCN2C(=O)c3cc(-c4ccccc4)ccc3NC(=O)[C@H]12 10 µM [inhibitor, partial curve]
Cc1noc(C)c1Cn1cc2c3c(cccc31)[C@H](CC(C)C)N[C@H](C(=O)NCc1ccco1)C2 2.24 µM [inhibitor, full curve]
COc1cc(OC)c(NC(=O)CCc2c(C)nc3cc(-c4ccccc4OC)nn3c2C)cc1Cl 1 µM [inhibitor, full curve]
COc1ccccc1-c1noc(CCC(=O)Nc2ccc(C)cc2C)n1 39.8 µM [inhibitor, single point]
COc1ccccc1Nc1ccnc(N2CCC(C(=O)NCc3cccc(C(F)(F)F)c3)CC2)n1 12.6 µM [inhibitor, partial curve, poor fit]
CCOCc1nc(C2CCCN(C(=O)c3ccc(C)c(F)c3)C2)no1 (centres undefined) 10 µM [inhibitor, partial curve, poor fit]
Cc1noc(C2CCCCCN2C(=O)c2ccoc2)n1 (centres undefined) 39.8 µM [inhibitor, single point]
Cc1ccc(NC(=O)CN2CCSc3ccc(S(=O)(=O)N4CCCC4)cc32)cc1 25.1 µM [inhibitor, single point]
O=C(c1cn(CCC2CCCCN2)nn1)N1CCc2nc[nH]c(=O)c2CC1 (centres undefined) 15.8 µM [inhibitor, partial curve, poor fit]
CCOC(=O)Cc1ccc(NC(=O)N2CCC(CN3CCCCCC3)CC2)cc1 7.08 µM [inhibitor, single point]
CCN(CC)c1cc2c(cc1F)c(=O)c(S(=O)(=O)c1ccc(OC)cc1)cn2Cc1ccccc1 22.4 µM [inhibitor, single point]
CC(C)CCNC(=O)Nc1ccc2c(c1)N(Cc1ccccc1)C(=O)c1ccccc1S2 22.4 µM [inhibitor, partial curve, poor fit]
COc1cc(NC(=O)CCC2CCN(C(=O)c3ccccc3F)CC2)cc(OC)c1 17.8 µM [inhibitor, partial curve, poor fit]
O=C(NCc1ccc(Cl)cc1)c1ccc2nnc(-c3cccc(C(F)(F)F)c3)n2c1 11.2 µM [inhibitor, partial curve, poor fit]
Cc1cc(=O)n2nc(N(C)CC(=O)NCc3cccc(Br)c3)sc2n1 28.2 µM [inhibitor, partial curve, poor fit]
CC1=C[C@@H](CNS(C)(=O)=O)[C@H](C(C)C)C[C@H]1Cc1nc2ccccc2n1C 56.2 µM [inhibitor, single point]
O=C(c1ccnc(CC2CC(=O)N(c3ccccc3)C2)c1)N1CCCCC1 (centres undefined) 7.08 µM [inhibitor, single point]
CCOc1ccc(S(=O)(=O)N(CC(=O)NCc2ccccc2OC)c2ccccc2)cc1 39.8 µM [inhibitor, single point]
CCn1ccc2sc(C)c(C(=O)NCc3ccc(F)cc3Cl)c2c1=O 39.8 µM [inhibitor, single point]
COc1ccccc1C(=O)N1CCC(c2noc(-c3ccc(S(=O)(=O)N4CCCC4)cc3)n2)CC1 10 µM [inhibitor, partial curve, poor fit]
COc1cccc(CNC(=O)c2oc3c(c2C)-c2nn(Cc4cccc(Cl)c4)cc2CC3)c1OC 35.5 µM [inhibitor, single point]
CN(C)S(=O)(=O)N1CCCN(Cc2ccncc2)C(c2ccccc2)CC(=O)NCC1 (centres undefined) 35.5 µM [inhibitor, single point]
Cc1nc2ccc(S(=O)(=O)N(CC(=O)Nc3cccc(F)c3)Cc3ccccc3)cc2s1 0.891 µM [inhibitor, full curve]
Cc1nc2n(c1C(=O)N(C)C)CCN(C(=O)c1cc(=O)n(C)c(=O)n1C)C2 5.62 µM [inhibitor, single point]
CCOCCCN1C(=O)c2[nH]nc(-c3ccccc3O)c2C1c1ccc(CC)cc1 (centres undefined) 35.5 µM [inhibitor, single point]
O=C(Nc1ccc(Oc2ccccc2)cc1)O[C@@H]1CO[C@H]2[C@@H]1OC[C@@H]2NC(=S)Nc1cccc2ccccc12 39.8 µM [inhibitor, single point]
O=C(COc1ccccc1)N1CCN2C(=O)N(Cc3ccccc3)C(=O)[C@H]2C1 12.6 µM [inhibitor, single point]
CCOc1ccc(CC(=O)N2CCC(Cc3nc(-c4ccc(F)cc4)no3)CC2)cc1 22.4 µM [inhibitor, partial curve, poor fit]
Cc1cnccc1CNC(=O)CC(c1cccc(O)c1)c1cccc(Cl)c1 (centres undefined) 20 µM [inhibitor, partial curve, poor fit]
CN(C(=O)c1ccc2c(c1)NC(C)(CNCc1ccccc1)CO2)c1ccccc1 (centres undefined) 28.2 µM [inhibitor, single point]
O=c1onc2n1-c1cc(Br)ccc1OC2 39.8 µM [inhibitor, single point]
Cc1ccsc1C(=O)N1CCN(c2cc(-c3ccc(Cl)cc3)[nH]n2)CC1 39.8 µM [inhibitor, single point]
CC(C)c1noc(-c2cn(C3CCCN(C(=O)c4ccc(C(C)(C)C)cc4)C3)nn2)n1 (centres undefined) 39.8 µM [inhibitor, single point]
COc1ccc(C(=O)N2CCCN(C(=O)C3CC3)C(c3ccccc3)CC(=O)NCC2)cc1F (centres undefined) 8.91 µM [inhibitor, partial curve]
Cc1ccc(C(=O)N2CCC3(CC2)N(C)C(=O)CS3(=O)=O)cc1F 3.16 µM [inhibitor, single point]
CSc1ccc(-c2cccc(C(=O)NCC(=O)NCc3cccc(F)c3)c2)cc1 22.4 µM [inhibitor, partial curve, poor fit]
CC(C)(C(=O)N1CCc2[nH]nc(-c3ccc(F)c(F)c3)c2C1)n1cccc1 17.8 µM [inhibitor, single point]
